The supplement of paper PMC10369915
The other results are listed elsewhere or left out. Rule as the data show it: active = 3.2 or more and inactive = the rest. The signal is at background level for most entries.

B1: HRAS_HUMAN_137_YA (peptide)
chain: AQDLARSYGIPAIET
B2: HS74L_HUMAN_89 (peptide)
chain: TERIRLPYELQKMPN
B3: HS90A_HUMAN_492 (peptide)
chain: KENQKHIYYITGETK
B4: HS90A_HUMAN_492_YA (peptide)
chain: KENQKHIYAITGETK
B5: HSP74_HUMAN_336 (peptide)
chain: KLKKEDIYAVEIVGG
B6: HSP74_HUMAN_89 (peptide)
chain: AEKSNLAYDIVQLPT
B7: HSP90AB1_HUMAN_301_YA (peptide)
chain: DDITQEEYGEFAKSL
B8: I12R2_HUMAN_800 (peptide)
chain: DLPTHDGYLPSNIDD
B9: AKT1_HUMAN_326 (peptide)
chain: EVLEDNDYGRAVDWW
B10: ICK_HUMAN_159_YA (peptide)
chain: SKPPATDYVSTRWAR
B11: IDHC_HUMAN_42 (peptide)
chain: VELDLHSYDLGIENR
B12: IF6_HUMAN_113 (peptide)
chain: NVTTCNDYVALVHPD
B13: IFNB_HUMAN_24 (peptide)
chain: TTALSMSYNLLGFLQ
B14: AKT2_HUMAN_178 (peptide)
chain: EKATGRYYAMKILRK
B15: IGF1R_HUMAN_1281 (peptide)
chain: FREVSFYYSEENKLP
B16: IGF1R_HUMAN_1281_YA (peptide)
chain: FREVSFAYSEENKLP
B17: IKBKB_HUMAN_199 (peptide)
chain: ELLEQQKYTVTVDYW
B18: IKBKB_HUMAN_199_YA (peptide)
chain: ELLEQQKYTVTVDAW

molecular target: SHP2 C-SH2 domain E139D; assay: enrichment score (SH2-bound / input frequency) (ratio); bacterial display of known human phosphotyrosine sites (pTyr-Var adds point mutants) read by sequencing; higher = stronger binding; tyrosines were phosphorylated by kinases first; settings: peptide library: Human pTyr
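Also: displayed peptides selected on beads carrying the immobilized SH2 domain, with library peptides lacking any tyrosine serving as negative controls.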

Enrichment score, inactive:
B1 0.831, B2 1.07, B3 1.83, B4 1.32, B5 1.44, B6 0.708, B7 1.11, B8 0.793, B9 1.11, B10 1.46, B11 0.557, B12 0.988, B13 1.15, B14 1.8, B15 1.1, B16 1.1, B17 1.57, B18 1.29

molecular target: SHP2 C-SH2 domain wild-type; assay: as above; settings: peptide library: Human pTyr

Enrichment score, inactive:
B1 0.645, B2 0.682, B3 2.56, B4 1.3, B5 1.15, B6 0.87, B7 1.02, B8 0.701, B9 0.822, B10 1.43, B11 0.636, B12 1.1, B13 1.12, B14 1.92, B15 1.9, B16 0.687, B17 1.38, B18 1.02

molecular target: SHP2 N-SH2 domain L43F; assay: as above; settings: peptide library: Human pTyr

Enrichment score, inactive:
B1 0.681, B2 0.675, B3 1.87, B4 1.13, B5 1.29, B6 0.749, B7 1.04, B8 0.815, B9 1.04, B10 1.46, B11 1.66, B12 0.957, B13 1.1, B14 2.03, B15 1.61, B16 0.621, B17 1.54, B18 1.03

molecular target: SHP2 N-SH2 domain T42A; assay: as above; settings: peptide library: Human pTyr

Enrichment score, inactive:
B1 0.589, B2 0.686, B3 1.74, B4 1.21, B5 1.38, B6 0.817, B7 1.08, B8 0.666, B9 0.944, B10 1.45, B11 0.599, B12 1.17, B13 1.3, B14 1.61, B15 1.54, B16 0.837, B17 1.35, B18 1.17

molecular target: SHP2 N-SH2 domain T52S; assay: as above; settings: peptide library: Human pTyr

Enrichment score, inactive:
B1 0.64, B2 0.839, B3 2.04, B4 1.07, B5 1.29, B6 0.732, B7 1.16, B8 0.747, B9 0.844, B10 1.3, B11 1.16, B12 1.2, B13 1.59, B14 1.71, B15 1.44, B16 0.913, B17 1.54, B18 1.44

molecular target: SHP2 N-SH2 domain wild-type; assay: as above; settings: peptide library: Human pTyr

Enrichment score, inactive:
B1 0.637, B2 0.826, B3 2.44, B4 1.68, B5 1.4, B6 0.859, B7 1.53, B8 1.05, B9 0.967, B10 1.58, B11 0.737, B12 1.08, B13 1.59, B14 2.25, B15 2.48, B16 0.879, B17 1.53, B18 1.44
